One molecule from article PMC5741687, “A Novel Role for CSRP1 in a Lebanese Family with Congenital Cardiac Defects” (Frontiers in Genetics, 2017) can be followed below.

By UniProt entry, the sequences of proteins in these tests, tags left out.
UniProt Q9BWX5: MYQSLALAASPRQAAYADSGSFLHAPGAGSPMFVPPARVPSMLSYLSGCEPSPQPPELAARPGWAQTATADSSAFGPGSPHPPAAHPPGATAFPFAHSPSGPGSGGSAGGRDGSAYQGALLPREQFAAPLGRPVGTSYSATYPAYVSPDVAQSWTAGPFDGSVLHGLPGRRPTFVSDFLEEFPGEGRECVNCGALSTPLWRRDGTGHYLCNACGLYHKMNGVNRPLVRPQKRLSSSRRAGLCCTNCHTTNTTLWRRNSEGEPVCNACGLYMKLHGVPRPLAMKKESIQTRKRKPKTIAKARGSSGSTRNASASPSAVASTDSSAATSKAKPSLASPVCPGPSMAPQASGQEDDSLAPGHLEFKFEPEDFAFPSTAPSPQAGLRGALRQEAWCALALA
UniProt Q92908: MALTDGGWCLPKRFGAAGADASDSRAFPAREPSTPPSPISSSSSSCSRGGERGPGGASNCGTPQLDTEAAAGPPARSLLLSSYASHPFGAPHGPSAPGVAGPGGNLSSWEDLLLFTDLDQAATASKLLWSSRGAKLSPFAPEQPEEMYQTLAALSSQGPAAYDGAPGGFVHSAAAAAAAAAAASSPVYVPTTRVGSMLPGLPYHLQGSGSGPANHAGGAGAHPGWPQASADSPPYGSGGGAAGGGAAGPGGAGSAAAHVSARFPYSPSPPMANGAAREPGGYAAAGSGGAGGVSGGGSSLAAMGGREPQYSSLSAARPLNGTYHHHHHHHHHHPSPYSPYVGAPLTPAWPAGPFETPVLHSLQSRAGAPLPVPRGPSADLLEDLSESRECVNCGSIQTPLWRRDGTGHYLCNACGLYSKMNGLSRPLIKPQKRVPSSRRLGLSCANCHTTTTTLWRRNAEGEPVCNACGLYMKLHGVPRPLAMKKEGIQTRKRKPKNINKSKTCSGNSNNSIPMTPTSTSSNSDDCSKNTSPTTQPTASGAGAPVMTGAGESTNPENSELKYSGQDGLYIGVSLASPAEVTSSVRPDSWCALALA
UniProt P43694: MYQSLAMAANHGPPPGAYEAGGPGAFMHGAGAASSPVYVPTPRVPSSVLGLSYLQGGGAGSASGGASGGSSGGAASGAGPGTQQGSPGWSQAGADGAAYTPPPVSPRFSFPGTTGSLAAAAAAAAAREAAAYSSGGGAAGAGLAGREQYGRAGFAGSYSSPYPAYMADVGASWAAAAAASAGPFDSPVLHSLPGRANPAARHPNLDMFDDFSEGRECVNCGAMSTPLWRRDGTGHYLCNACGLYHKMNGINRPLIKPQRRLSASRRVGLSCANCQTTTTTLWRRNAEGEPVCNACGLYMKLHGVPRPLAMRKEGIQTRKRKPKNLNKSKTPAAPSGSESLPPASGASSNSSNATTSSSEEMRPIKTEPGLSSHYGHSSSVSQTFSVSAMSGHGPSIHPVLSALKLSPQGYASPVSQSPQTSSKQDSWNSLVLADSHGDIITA

No constants are given. Whether binding was seen depends on the method and setting. Binding seen in cells or lysates may run through a third protein. Some entries that bind do so weakly or less than the wild type. Sequences can lack the tags named with a protein.

Some targets named below: HA-tagged GATA5 (UniProt Q9BWX5); HA-tagged GATA6 (UniProt Q92908); HA-tagged GATA4 (UniProt P43694 1-442).
Common to all, as to test: co-IP; nuclear extracts (200 ug protein) of HEK293 cells transiently overexpressing both proteins; anti-HA on Dynabeads Protein G, 2 h at RT, washed three times with PBS; blot with anti-Flag, then stripped and probed with anti-HA
A further assay deals with T1, HA-tagged TBX5 (UniProt Q99593 1-518).
T1 sequence (looked up): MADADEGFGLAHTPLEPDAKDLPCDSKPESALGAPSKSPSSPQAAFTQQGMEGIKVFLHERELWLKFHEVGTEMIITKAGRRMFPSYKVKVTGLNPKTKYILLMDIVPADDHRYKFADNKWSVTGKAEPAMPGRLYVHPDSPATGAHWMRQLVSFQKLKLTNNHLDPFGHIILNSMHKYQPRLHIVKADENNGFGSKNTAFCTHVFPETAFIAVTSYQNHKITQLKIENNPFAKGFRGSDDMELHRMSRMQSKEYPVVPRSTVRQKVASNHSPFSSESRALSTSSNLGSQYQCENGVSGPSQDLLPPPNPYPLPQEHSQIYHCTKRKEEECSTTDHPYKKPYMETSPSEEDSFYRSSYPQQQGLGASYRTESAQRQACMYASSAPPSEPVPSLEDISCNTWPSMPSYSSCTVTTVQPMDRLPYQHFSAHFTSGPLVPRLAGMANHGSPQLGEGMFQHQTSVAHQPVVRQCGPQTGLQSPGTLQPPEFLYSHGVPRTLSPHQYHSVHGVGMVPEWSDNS

Assay [1] addresses T2, HA-tagged p.R311S TRPS1 (human) (UniProt Q9UHF7).
T2 sequence: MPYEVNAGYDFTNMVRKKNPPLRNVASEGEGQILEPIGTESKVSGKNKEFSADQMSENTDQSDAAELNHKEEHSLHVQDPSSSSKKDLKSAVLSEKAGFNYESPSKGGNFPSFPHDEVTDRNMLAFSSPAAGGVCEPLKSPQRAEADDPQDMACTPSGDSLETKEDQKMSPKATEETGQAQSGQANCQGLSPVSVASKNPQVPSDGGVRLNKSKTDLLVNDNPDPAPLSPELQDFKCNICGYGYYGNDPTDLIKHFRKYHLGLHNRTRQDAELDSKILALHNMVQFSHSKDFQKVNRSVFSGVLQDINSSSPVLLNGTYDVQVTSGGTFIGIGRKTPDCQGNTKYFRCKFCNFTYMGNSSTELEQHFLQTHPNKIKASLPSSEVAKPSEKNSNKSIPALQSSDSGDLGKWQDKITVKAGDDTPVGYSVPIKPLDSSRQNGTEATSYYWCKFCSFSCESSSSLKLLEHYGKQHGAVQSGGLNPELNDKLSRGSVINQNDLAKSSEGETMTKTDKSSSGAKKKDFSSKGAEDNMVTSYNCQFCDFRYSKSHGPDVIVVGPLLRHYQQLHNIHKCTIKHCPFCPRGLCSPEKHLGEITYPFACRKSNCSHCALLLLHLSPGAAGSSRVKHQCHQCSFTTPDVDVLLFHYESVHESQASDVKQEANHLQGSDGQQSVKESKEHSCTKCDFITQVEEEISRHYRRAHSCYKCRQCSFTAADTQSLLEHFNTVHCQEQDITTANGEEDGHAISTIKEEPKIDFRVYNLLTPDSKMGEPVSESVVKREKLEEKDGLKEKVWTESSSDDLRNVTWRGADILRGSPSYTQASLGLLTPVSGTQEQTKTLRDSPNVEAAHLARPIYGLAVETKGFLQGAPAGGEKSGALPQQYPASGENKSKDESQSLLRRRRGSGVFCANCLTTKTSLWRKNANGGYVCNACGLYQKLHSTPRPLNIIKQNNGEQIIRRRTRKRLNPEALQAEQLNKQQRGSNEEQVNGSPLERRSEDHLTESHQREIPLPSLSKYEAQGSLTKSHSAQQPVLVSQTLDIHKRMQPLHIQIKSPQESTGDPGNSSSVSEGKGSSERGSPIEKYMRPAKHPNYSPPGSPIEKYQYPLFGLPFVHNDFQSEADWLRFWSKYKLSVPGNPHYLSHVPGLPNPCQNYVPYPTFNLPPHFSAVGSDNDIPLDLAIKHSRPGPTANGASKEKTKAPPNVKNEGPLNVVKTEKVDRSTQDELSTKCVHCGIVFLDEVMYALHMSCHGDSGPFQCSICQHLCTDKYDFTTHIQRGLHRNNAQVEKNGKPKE

Assay [2] deals with T3, HA-tagged serum response factor (SRF) (UniProt P11831).
T3 sequence: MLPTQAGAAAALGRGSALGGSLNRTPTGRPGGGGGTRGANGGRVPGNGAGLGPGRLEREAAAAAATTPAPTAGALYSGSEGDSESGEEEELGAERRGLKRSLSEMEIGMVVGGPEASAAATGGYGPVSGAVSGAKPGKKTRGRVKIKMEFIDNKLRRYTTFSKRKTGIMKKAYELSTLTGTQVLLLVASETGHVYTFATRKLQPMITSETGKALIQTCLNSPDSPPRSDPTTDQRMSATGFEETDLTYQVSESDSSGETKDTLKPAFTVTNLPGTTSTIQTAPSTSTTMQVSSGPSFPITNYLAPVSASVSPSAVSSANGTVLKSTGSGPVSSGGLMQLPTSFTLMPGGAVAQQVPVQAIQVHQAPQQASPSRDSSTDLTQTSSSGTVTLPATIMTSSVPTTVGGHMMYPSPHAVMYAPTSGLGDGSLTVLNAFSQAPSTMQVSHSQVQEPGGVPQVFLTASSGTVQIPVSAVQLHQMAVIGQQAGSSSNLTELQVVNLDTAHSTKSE

For assay [3], the target named is T4, HA-tagged wild-type TRPS1 (human) (UniProt Q9UHF7).
T4 sequence: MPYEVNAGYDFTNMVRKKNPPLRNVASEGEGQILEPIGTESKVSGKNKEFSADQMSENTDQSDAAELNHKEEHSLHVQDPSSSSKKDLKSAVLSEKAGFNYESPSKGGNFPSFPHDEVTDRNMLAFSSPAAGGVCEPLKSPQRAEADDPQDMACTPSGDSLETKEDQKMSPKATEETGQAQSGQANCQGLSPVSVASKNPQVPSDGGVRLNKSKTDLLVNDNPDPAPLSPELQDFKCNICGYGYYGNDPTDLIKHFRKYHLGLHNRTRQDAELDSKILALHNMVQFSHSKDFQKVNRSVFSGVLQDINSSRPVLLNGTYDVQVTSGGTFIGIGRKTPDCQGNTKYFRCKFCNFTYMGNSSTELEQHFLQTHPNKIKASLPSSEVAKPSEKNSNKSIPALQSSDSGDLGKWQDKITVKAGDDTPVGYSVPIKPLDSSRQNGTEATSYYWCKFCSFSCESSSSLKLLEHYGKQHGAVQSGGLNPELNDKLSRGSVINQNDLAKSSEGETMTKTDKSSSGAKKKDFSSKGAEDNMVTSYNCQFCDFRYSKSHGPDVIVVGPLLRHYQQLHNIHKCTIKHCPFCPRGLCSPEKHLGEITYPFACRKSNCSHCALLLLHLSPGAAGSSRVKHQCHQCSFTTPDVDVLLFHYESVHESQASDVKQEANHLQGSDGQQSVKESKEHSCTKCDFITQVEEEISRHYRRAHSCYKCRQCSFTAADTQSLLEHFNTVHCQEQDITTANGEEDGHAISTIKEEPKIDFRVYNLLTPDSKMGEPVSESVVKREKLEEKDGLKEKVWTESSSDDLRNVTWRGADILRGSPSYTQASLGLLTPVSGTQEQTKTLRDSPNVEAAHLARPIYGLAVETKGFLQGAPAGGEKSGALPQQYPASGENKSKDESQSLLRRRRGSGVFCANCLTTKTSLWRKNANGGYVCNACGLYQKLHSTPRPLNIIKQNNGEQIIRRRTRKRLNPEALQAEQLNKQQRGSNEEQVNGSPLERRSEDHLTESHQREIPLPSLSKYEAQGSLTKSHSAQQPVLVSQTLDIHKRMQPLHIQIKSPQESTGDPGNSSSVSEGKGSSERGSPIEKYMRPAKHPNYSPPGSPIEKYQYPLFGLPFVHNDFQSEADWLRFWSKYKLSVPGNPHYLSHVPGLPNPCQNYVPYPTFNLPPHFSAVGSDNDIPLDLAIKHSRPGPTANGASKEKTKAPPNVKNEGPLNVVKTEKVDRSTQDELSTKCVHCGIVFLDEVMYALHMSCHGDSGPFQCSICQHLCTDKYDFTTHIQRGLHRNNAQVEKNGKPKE

B1: Flag-tagged wild type human CSRP1 (natural protein, UniProt P21291 1-193, looked up)
chain: MPNWGGGKKCGVCQKTVYFAEEVQCEGNSFHKSCFLCMVCKKNLDSTTVAVHGEEIYCKSCYGKKYGPKGYGYGQGAGTLSTDKGESLGIKHEEAPGHRPTTNPNASKFAQKIGGSERCPRCSQAVYAAEKVIGAGKSWHKACFRCAKCGKGLESTTLADKDGEIYCKGCYAKNFGPKGFGFGQGAGALVHSE
On to B1, for which the binding result is on record as “no binding” with HA-tagged GATA5; “binds” with HA-tagged GATA6; “binds” in the assay with HA-tagged GATA4; “binds” with HA-tagged TBX5; “no binding” in assay [1]; “binds” in assay [2]. Moreover, in assay [3], the binding entry is given as “binds”.
